Measured values: PMC4336329 (PLoS ONE, 2015)
The campaign covered roughly 310,000 compounds. About 2,200 (0.71%) showed an effect of 50% or more. The effect is printed as a negative number. Some of the results follow.

The compounds below were run against human ether-à-go-go-related gene (hERG) potassium channel (human, UniProt Q12809) (assay: primary screen, population patch clamp on CHO cells stably expressing hERG).
Sequence of human ether-à-go-go-related gene (hERG) potassium channel (Q12809 whole entry, looked up): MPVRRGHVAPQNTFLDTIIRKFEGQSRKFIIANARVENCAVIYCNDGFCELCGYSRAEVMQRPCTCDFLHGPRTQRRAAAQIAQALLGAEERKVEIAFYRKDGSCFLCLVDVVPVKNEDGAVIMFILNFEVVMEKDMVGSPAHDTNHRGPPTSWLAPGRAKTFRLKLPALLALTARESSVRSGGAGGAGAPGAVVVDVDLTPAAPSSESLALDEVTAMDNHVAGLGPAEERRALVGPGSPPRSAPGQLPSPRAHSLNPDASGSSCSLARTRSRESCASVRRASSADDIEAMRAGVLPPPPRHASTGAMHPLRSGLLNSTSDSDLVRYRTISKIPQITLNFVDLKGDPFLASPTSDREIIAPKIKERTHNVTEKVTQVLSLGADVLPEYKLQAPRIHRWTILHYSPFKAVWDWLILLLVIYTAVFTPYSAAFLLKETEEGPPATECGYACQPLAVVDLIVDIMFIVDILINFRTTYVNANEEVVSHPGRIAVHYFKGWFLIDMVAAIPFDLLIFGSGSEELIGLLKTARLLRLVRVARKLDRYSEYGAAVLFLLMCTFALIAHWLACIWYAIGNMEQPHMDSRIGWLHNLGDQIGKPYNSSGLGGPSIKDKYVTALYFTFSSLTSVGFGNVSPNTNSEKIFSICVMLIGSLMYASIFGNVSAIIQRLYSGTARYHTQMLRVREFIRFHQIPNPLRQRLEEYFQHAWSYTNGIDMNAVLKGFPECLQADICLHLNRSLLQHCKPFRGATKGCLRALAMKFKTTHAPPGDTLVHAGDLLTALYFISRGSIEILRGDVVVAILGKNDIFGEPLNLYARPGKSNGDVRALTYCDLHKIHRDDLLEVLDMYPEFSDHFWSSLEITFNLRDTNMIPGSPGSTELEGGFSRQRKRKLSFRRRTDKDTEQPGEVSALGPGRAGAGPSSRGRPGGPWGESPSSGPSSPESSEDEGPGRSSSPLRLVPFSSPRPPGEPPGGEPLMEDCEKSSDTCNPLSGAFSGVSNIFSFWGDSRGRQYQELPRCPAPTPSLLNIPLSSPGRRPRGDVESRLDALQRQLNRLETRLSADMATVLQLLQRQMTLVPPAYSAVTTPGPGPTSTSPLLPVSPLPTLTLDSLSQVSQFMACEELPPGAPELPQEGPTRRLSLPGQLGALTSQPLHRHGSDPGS

Structure (SMILES)	hERG current change (%, negative = inhibition) at 1uM [%]
CC1(C)C2([N+](=O)[O-])CN3CC1([N+](=O)[O-])CN(C2)C3c1cccnc1 (centres unmarked)	11.8
CCN1CCN(S(=O)(=O)c2ccc(F)c(C(=O)Nc3c(F)cc(F)cc3Br)c2)CC1	4.96
CCn1c2ccccc2c2cc(C#N)c(N)nc21	-0.12
COC(=O)c1sc(N)c(C(=O)OC)c1COC(=O)CCNS(=O)(=O)c1ccc(C)cc1	8.17
O=C(O)CC1NC(=O)N(c2ccc(Cl)cc2)C1=O (centres unmarked)	13.6
Cc1cccc(NC(=O)NNC(=O)COc2ccc([N+](=O)[O-])cc2)c1C	7.92
CCCN1CCN(C(=O)CCCNC(=O)Cn2cnc3sc(C)c(C)c3c2=O)CC1	12.7
CC(=O)c1ccccc1NC(=O)COC(=O)c1ccccc1NC(=O)c1ccccc1	7.74
COc1ccc(OC)c(C2=NOC(C(=O)NCc3cccnc3)C2)c1 (centres unmarked)	-41.8
CCOC(=O)C(/C=C(\C#N)C(=O)OCC)=C(/N)N1CCN(c2ccc(OC)cc2)CC1	7.82
COc1ccc(N(C(=O)c2ccco2)C(C(=O)NC2CCCC2)c2cccs2)c(OC)c1 (centres unmarked)	9.69
CCN(CC)S(=O)(=O)c1cc(C(=O)O)c(Cl)cc1Cl	15.3
CCOc1ccc(N2C(=O)c3cccnc3C2Nc2ccc(F)cc2)cc1 (centres unmarked)	-1.95
CCOc1ccc(C(=O)NCC(=O)NCC(c2ccc(OC)cc2)N2CCCC2)cc1 (centres unmarked)	8.63
CC12CC3CC(C)(C1)CC(C(=O)NCc1cccnc1)(C3)C2	6.55
CC(=O)Nc1ccc(S(=O)(=O)N2CCSC2c2ccc(C)cc2)cc1 (centres unmarked)	16.2
CCCS(=O)(=O)Nc1ccc2cn[nH]c2c1	6.45
c1ccc(CNc2ncnc3c2cnn3Cc2ccccc2)cc1	-4.81
CCN(CC)S(=O)(=O)c1ccc(/C=C/C(=O)OCC(=O)NCc2cccs2)cc1	7.68
Cc1ccc(S(=O)(=O)Nc2cc(=O)[nH]c3c2CCC3)cc1	10.1
COCCCn1c(SCC(=O)NC2CCS(=O)(=O)C2)nnc1-c1ccc(Cl)cc1 (centres unmarked)	8.65
CC(=O)N/C(=C\c1ccccc1)C(=O)OCC(=O)c1ccc(F)cc1	6.18

Structure (SMILES)	hERG current change (%, negative = inhibition) at 1uM [%]
O=C(Nc1ccc(Cl)cc1)N(C1=NCCC1)c1ccc(OC(F)F)cc1	8.08
O=C(NC(Cc1ccccc1)C(=O)O)/C(=C/c1ccco1)NC(=O)c1cccc(Br)c1 (centres unmarked)	12
CC1CCN(C(=S)NC2CC3CCC2C3)CC1 (centres unmarked)	6.21
O=C(CSc1nc(=O)n2cc(Cl)ccc2n1)NCCc1ccccc1	-13.6
COc1ccccc1N1CCN(c2ccc3ccccc3n2)CC1	3.32
COc1ccccc1C(C)NCC(=O)Nc1ccccc1C(F)(F)F.O=C(O)C(=O)O (centres unmarked)	8.84
CCCc1nn(C)c(C(=O)Nc2cccc3ccccc23)c1Cl	10.4
CC(C)c1ccc(/C=C2\SC(=O)N(CC(=O)NC3CCS(=O)(=O)C3)C2=O)cc1 (centres unmarked)	13.6
CCC(=O)NCCc1nc2cc(NC(=O)Nc3ccccc3)ccc2n1C	13.5
O=C(OCc1csc(Nc2ccccc2)n1)c1ccc(Cl)cc1	3.45
C=CCNC(=O)c1nn2cccnc2c1Cl	8.12
COC(=O)Cn1cc(C(=O)c2cccs2)c2ccccc21	5.94
COc1ccc(-c2nnc(SCc3ccc(C(=O)O)cc3)o2)cc1OC	13.4
Cc1ccccc1Cn1cc(NC(=O)CSc2nc3c(c(C(F)(F)F)n2)CCc2ccccc2-3)cn1	3.67
CC(=O)c1c(C)[nH]c(C(=O)COc2cc(C)ccc2C(C)C)c1C	13.5
O=C(O)CC(NC(=O)C12CC3CC(CC(C3)C1)C2)c1ccc(OC2CCCC2)cc1 (centres unmarked)	10.7
COc1ccccc1C1(O)CC2CCC(C1)N2S(=O)(=O)c1ccc(C(C)=O)cc1 (centres unmarked)	8.81
O=C(Nc1ccc(Cc2ccc(NC(=O)C3CC3)c(O)c2)cc1O)C1CC1	9.78
CC(C)Nc1nc(-c2ccncc2)nc(-c2ccc(Cl)cc2)c1C#N	10.4
Cc1ccc(C(=O)Nc2cccc(-c3ccc(N4CCOCC4)nn3)c2)cc1C	13.4
COC(=O)COc1ccc2occ(C(C)=O)c2c1	7.84
NC(=O)C1CCCN(C(=O)c2ccc3oc(Cc4ccc(Cl)cc4)nc3c2)C1 (centres unmarked)	17.1

Structure (SMILES)	hERG current change (%, negative = inhibition) at 1uM [%]
O=c1sc2ccccc2c(N2CCCCC2)c1[N+](=O)[O-]	2.27
O=C(Nc1nccs1)C1CC(=O)N(c2ccc(F)cc2)C1 (centres unmarked)	13.7
O=C(CCCC(=O)c1ccccc1)NCCc1ccccc1F	12.4
O=C(c1cnccn1)N1CCN(c2ccccc2)CC1	3.46
Cc1cccc(NC(=S)N(C)C2CCCCC2)c1	7.08
COc1ccc(NC(=O)NC(C)c2ccccc2)cc1 (centres unmarked)	15
CCN(CC(=O)Nc1c(F)cccc1F)C(=O)CNC(=O)c1ccc2ccccc2c1	-0.444
COc1ccc(S(=O)(=O)N2CCOCC2)cc1NC(=O)CC1CCCC1	3.14
CCCCN(C(=O)CN1C(=O)C2CCCCC2C1=O)c1c(N)n(Cc2ccccc2)c(=O)[nH]c1=O (centres unmarked)	11.9
O=C(c1ccc2c(=O)n3c(nc2c1)CCCCC3)N1CCN(C(c2ccccc2)c2ccccc2)CC1	-9.16
CCCCC(=O)NCCNC(=O)c1cc(OCC(F)(F)F)ccc1OCC(F)(F)F	10.3
Cc1cccc(NC(=O)C2C3C=CC4(O3)C2C(=O)N(CCCN2CCCC2)C4C(=O)NC2CCCC(C)C2C)c1 (centres unmarked)	8.54
Cc1cc(C)nc(SCc2nnc(SCC(=O)Nc3ccc(C)c(C)c3)n2Cc2ccco2)n1	5.47
Cc1c(Cl)cccc1NC(=O)CNC(=O)c1ccco1	12.7
CCCN(CCC)C(=O)CSc1ncccc1C(=O)O	11.6
Cc1ccc2nc(SCCCCOc3ccccc3)[nH]c2c1	7.22
COc1ccc(C)c2sc(N(CCN(C)C)C(=O)c3ccc4ccccc4c3)nc12.Cl	14.5
CCOc1ccc(C(=O)NCC(=O)OCC(=O)N2CCC(C)CC2)cc1	-9.02
O=C(C(c1ccccc1)c1ccccc1)N1CCOCC1	6.83
COc1ccc(/C(N)=N/OC(=O)c2ccc3c(c2)OCO3)cc1OC	5.81
CCOC(=O)c1cc2c(C)[nH]c(C)c2cc(C(=O)OCC)c1=O	7.73
CCS(=O)(=O)N1Cc2ccccc2CC1C(=O)OCC(=O)N(C(C)C)C(C)C (centres unmarked)	9.39

Structure (SMILES)	hERG current change (%, negative = inhibition) at 1uM [%]
COc1ccccc1NC1=NC(C)(C)N=C(N)N1	15
CN1C(=O)/C(=C/c2ccccc2Cl)Sc2ccc(C(=O)NCc3cccnc3)cc21	-6.36
CCCN(C(=O)COC(=O)CNC(=O)c1ccc2ccccc2c1)c1c(N)n(Cc2ccccc2)c(=O)[nH]c1=O	9.61
C/C=C(\C)CN1CCN(c2ccccc2F)CC1	5.34
O=[N+]([O-])c1cccc(/C=N/Nc2nccnc2Cl)c1	-3.54
COc1ccccc1CNc1ncnc2sccc12	21.3
Cc1ccc(OCc2nnc(SCC(N)=O)n2N)cc1	9.26
COC(=O)[C@@]1(Cc2ccc(F)cc2)[C@H]2c3cc(C(=O)N(C)C)n(Cc4ccccc4)c3C[C@H]2CN1C(=O)c1ccccc1	3.31
CN(C)S(=O)(=O)c1ccc(NC(=O)c2cc3ccccc3o2)cc1	8.55
C[C@H](N)C(=O)OCc1ccc([N+](=O)[O-])cc1.O=S(=O)(O)c1ccccc1	15.4
O=C(O)CC(NS(=O)(=O)c1c(F)cc(F)cc1Br)c1ccccc1Cl (centres unmarked)	1.1
CCOC(=O)c1nc(C)n(-c2cc(OC)c(Cl)cc2Cl)n1	12.7
CC(C)C(NC(=O)c1ccc(S(=O)(=O)N2CCOCC2)cc1)c1nc2ccccc2[nH]1 (centres unmarked)	-11.3
C=CCN(C(=O)c1csnn1)C(C(=O)NC1CCCCC1)c1ccc(F)cc1 (centres unmarked)	1.8
COc1ccc(S(=O)(=O)N2CCOCC2)cc1NC(=O)CCNC(=O)c1ccc([N+](=O)[O-])cc1	-2.8
Cc1c(CN2CCCC(CO)(Cc3cccc(Cl)c3)C2)cnn1C (centres unmarked)	9.47
CCOC(=O)CSc1nnc(CSc2nc3ccccc3s2)n1C	6.96
CCOC(=O)/C(C#N)=C/Nc1cc(C(C)(C)C)sc1C(C)=O	19
COC(=O)C1=C(N)Oc2cc(C)n(CCN3CCOCC3)c(=O)c2C1c1cccnc1 (centres unmarked)	12.5
CC(C)(C)OC(=O)N1CCC(c2c(C(=O)O)cnn2-c2ccccc2)CC1	15.7
